# No constants are given. Whether binding was seen depends on the method and setting. Some entries that bind do so weakly or less than the wild type.
# Chains of the proteins cited; added tags and fusions are not shown.
# UniProt P29466: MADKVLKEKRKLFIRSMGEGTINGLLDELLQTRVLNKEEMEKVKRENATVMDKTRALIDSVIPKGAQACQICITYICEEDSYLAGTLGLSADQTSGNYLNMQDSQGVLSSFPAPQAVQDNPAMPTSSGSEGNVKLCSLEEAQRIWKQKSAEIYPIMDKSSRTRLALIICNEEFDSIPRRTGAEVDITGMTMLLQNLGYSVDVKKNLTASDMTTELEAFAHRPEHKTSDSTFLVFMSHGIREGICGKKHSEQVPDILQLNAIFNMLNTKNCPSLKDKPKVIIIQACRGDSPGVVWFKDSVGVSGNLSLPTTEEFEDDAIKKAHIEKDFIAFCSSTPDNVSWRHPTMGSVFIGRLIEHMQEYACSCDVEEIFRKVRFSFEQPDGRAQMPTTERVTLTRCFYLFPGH
# UniProt P55211: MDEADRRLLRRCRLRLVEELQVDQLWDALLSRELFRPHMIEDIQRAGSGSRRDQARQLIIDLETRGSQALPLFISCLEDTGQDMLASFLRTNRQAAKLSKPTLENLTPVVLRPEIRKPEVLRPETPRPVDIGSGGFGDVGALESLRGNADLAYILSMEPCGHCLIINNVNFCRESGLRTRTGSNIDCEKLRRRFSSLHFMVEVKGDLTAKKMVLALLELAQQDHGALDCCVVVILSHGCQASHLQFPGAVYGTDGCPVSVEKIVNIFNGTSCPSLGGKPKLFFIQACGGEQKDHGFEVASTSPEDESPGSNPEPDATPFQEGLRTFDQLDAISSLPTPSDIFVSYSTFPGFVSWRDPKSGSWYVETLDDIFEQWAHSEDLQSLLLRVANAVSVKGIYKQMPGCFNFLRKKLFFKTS
# UniProt Q14790: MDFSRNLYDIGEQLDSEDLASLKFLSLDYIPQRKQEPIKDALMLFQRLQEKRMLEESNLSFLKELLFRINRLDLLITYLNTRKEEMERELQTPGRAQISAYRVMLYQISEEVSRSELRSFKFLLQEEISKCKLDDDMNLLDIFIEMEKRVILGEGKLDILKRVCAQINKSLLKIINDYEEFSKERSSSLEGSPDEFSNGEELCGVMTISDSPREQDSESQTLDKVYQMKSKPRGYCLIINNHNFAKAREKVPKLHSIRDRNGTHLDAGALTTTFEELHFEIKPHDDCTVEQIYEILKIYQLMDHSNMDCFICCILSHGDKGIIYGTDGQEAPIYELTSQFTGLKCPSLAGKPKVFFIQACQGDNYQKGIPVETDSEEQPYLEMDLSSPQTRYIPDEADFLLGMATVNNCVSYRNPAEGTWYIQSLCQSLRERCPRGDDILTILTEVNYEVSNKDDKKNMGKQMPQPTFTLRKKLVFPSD
# B1: full-length human CASP4 (protein, UniProt P49662 1-377)
# chain: MAEGNHRKKPLKVLESLGKDFLTGVLDNLVEQNVLNWKEEEKKKYYDAKTEDKVRVMADSMQEKQRMAGQMLLQTFFNIDQISPNKKAHPNMEAGPPESGESTDALKLCPHEEFLRLCKERAEEIYPIKERNNRTRLALIICNTEFDHLPPRNGADFDITGMKELLEGLDYSVDVEENLTARDMESALRAFATRPEHKSSDSTFLVLMSHGILEGICGTVHDEKKPDVLLYDTIFQIFNNRNCLSLKDKPKVIIVQACRGANRGELWVRDSPASLEVASSQSSENLEEDAVYKTHVEKDFIAFCSSTPHNVSWRDSTMGSIFITQLITCFQKYSWCCHLEEVFRKVQQSFETPRAKAQMPTIERLSMTRYFYLFPGN
# B2: full-length human caspase 2 (protein, UniProt P42575 1-452)
# chain: MAAPSAGSWSTFQHKELMAADRGRRILGVCGMHPHHQETLKKNRVVLAKQLLLSELLEHLLEKDIITLEMRELIQAKVGSFSQNVELLNLLPKRGPQAFDAFCEALRETKQGHLEDMLLTTLSGLQHVLPPLSCDYDLSLPFPVCESCPLYKKLRLSTDTVEHSLDNKDGPVCLQVKPCTPEFYQTHFQLAYRLQSRPRGLALVLSNVHFTGEKELEFRSGGDVDHSTLVTLFKLLGYDVHVLCDQTAQEMQEKLQNFAQLPAHRVTDSCIVALLSHGVEGAIYGVDGKLLQLQEVFQLFDNANCPSLQNKPKMFFIQACRGDETDRGVDQQDGKNHAGSPGCEESDAGKEKLPKMRLPTRSDMICGYACLKGTAAMRNTKRGSWYIEALAQVFSERACDMHVADMLVKVNALIKDREGYAPGTEFHRCKEMSEYCSTLCRHLYLFPGHPPT
# B3: full-length human caspase 6 (protein, UniProt P55212 1-293)
# chain: MSSASGLRRGHPAGGEENMTETDAFYKREMFDPAEKYKMDHRRRGIALIFNHERFFWHLTLPERRGTCADRDNLTRRFSDLGFEVKCFNDLKAEELLLKIHEVSTVSHADADCFVCVFLSHGEGNHIYAYDAKIEIQTLTGLFKGDKCHSLVGKPKIFIIQACRGNQHDVPVIPLDVVDNQTEKLDTNITEVDAASVYTLPAGADFLMCYSVAEGYYSHRETVNGSWYIQDLCEMLGKYGSSLEFTELLTLVNRKVSQRRVDFCKDPSAIGKKQVPCFASMLTKKLHFFPKSN
# B4: full-length human caspase 7 (protein, UniProt P55210 1-303)
# chain: MADDQGCIEEQGVEDSANEDSVDAKPDRSSFVPSLFSKKKKNVTMRSIKTTRDRVPTYQYNMNFEKLGKCIIINNKNFDKVTGMGVRNGTDKDAEALFKCFRSLGFDVIVYNDCSCAKMQDLLKKASEEDHTNAACFACILLSHGEENVIYGKDGVTPIKDLTAHFRGDRCKTLLEKPKLFFIQACRGTELDDGIQADSGPINDTDANPRYKIPVEADFLFAYSTVPGYYSWRSPGRGSWFVQALCSILEEHGKDLEIMQILTRVNDRVARHFESQSDDPHFHEKKQIPCVVSMLTKELYFSQ
# B5: full-length human caspase 10 (protein, UniProt Q92851 1-521)
# chain: MKSQGQHWYSSSDKNCKVSFREKLLIIDSNLGVQDVENLKFLCIGLVPNKKLEKSSSASDVFEHLLAEDLLSEEDPFFLAELLYIIRQKKLLQHLNCTKEEVERLLPTRQRVSLFRNLLYELSEGIDSENLKDMIFLLKDSLPKTEMTSLSFLAFLEKQGKIDEDNLTCLEDLCKTVVPKLLRNIEKYKREKAIQIVTPPVDKEAESYQGEEELVSQTDVKTFLEALPQESWQNKHAGSNGNRATNGAPSLVSRGMQGASANTLNSETSTKRAAVYRMNRNHRGLCVIVNNHSFTSLKDRQGTHKDAEILSHVFQWLGFTVHIHNNVTKVEMEMVLQKQKCNPAHADGDCFVFCILTHGRFGAVYSSDEALIPIREIMSHFTALQCPRLAEKPKLFFIQACQGEEIQPSVSIEADALNPEQAPTSLQDSIPAEADFLLGLATVPGYVSFRHVEEGSWYIQSLCNHLKKLVPRMLKFLEKTMEIRGRKRTVWGAKQISATSLPTAISAQTPRPPMRRWSSVS
# Biological target: Shigella OspC3 (Shigella)
# Assay: two-hybrid; yeast MaV103 and MaV203, 96-well format; GAL4BD-OspC effector and GAL4AD-caspase; selection on medium lacking leucine, tryptophan and histidine with 40 mM 3-amino-1,2,4-triazole; growth scored after 7 days at 30°C
row,Molecule,binding
1,full-length human caspase 1 (from UniProt P29466 1-404),no binding
2,full-length human caspase 9 (from UniProt P55211 1-416),no binding
3,full-length human caspase 8 (from UniProt Q14790 1-479),no binding
4,B1,binds
5,B2,no binding
6,B3,no binding
7,B4,no binding
8,B5,no binding
